54 sequences from PMC7819943, “Rice protein-binding microarrays: a tool to detect cis-acting elements near promoter regions in rice” can be followed below.

The list shows a part of the results.

The test concerns the target T1, OsWOX13 (Oryza sativa, UniProt Q5QMM3 1-267).
T1 sequence: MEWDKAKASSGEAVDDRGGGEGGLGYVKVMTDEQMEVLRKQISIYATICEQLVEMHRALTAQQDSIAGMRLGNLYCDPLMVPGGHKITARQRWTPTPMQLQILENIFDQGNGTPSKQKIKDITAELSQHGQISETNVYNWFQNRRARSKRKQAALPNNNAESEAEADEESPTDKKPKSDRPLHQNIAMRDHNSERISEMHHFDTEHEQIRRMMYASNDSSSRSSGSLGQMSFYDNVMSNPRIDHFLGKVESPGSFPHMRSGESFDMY
The experiment in a line: protein-binding microarray (RPBM); PBS, 2% BSA, 51.3 ng/ul salmon testes DNA, 50 uM zinc acetate, 200 nM TF, 25 C, 1 h; high values mean tight binding. The following applies: protein: recombinant; tags: N-terminal polyhistidine and DsRed monomer fusion (pET32a); label: CyDye5-dUTP incorporated in the synthesized complementary strand; 3' TTTTT single-stranded linker to array surface; dsDNA, one strand shown. A digest of the protocol:
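Binding signal is defined as the fluorescence intensity of each feature in arbitrary units, read on an Axon 4000B scanner. Transcription factors with N-terminal polyhistidine and DsRed fusions came from E. coli BL21-CodonPlus and were purified on Ni–NTA. They were incubated at 200 nM for 1 h at 25 °C on a custom Agilent array that had been made double-stranded with Cy5-dUTP, with 50 µM zinc acetate present, and the array was washed.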
For “CGTAATTATTCTATTCTAGCCGTCTTCGTGTCTATTATATCGGAGTCACCTAGTGCAG”, the binding signal was 26500 fluorescence intensity (a.u.).

For “TTGATTTGTCAACCATACATTTGTTGTTTGGCTTTTGTGACGGAGTCACCTAGTGCAG”, the binding signal was 3830 fluorescence intensity (a.u.).

“CATCAATCACCAAGGCCCTTTAAGACCAGTACCTAACCCCCGGAGTCACCTAGTGCAG”: the binding signal is 20500 fluorescence intensity (a.u.).

As for “ATAAACATTCTTAATTGTCTCGAGTCCAATCACACGATGGCGGAGTCACCTAGTGCAG”, the binding signal is 19400 fluorescence intensity (a.u.).

For the sequence “GTGCAGGTAATTGACAGATCATTTGGTTTCGACACTGCAGCGGAGTCACCTAGTGCAG”, the binding signal is 14100 fluorescence intensity (a.u.).

Take “TGTAATTATTCCCTCAGGTATCAATCAATTCAGTTAACTTCGGAGTCACCTAGTGCAG”: the binding signal was 17300 fluorescence intensity (a.u.).

With “CTCCTTGTTTAATTTGCACATTGTCGTCTTGCGATTACGGCGGAGTCACCTAGTGCAG”, the binding signal is 5570 fluorescence intensity (a.u.).

Turning to “ATATAATTAGACTAAGCAATGCTTTAAGATGTGAAAGGAGCGGAGTCACCTAGTGCAG”, the binding signal was 20600 fluorescence intensity (a.u.).

With “CATATGCTAATTACTCCATCCATTTTATATTATATATCATCGGAGTCACCTAGTGCAG”, the binding signal is 3600 fluorescence intensity (a.u.).

“AAATTGTTTAATTGTTTATGGTATTGTAGTAGCATGTCATCGGAGTCACCTAGTGCAG”: the binding signal is 10600 fluorescence intensity (a.u.).

With “TATAATTTGTATAGTTACTTGCAATTCTCATCAAATACAGCGGAGTCACCTAGTGCAG”, the binding signal is 15600 fluorescence intensity (a.u.).

For the sequence “TCAGATTATTCATCAGATTATTAAAACATATTATTTGCTCCGGAGTCACCTAGTGCAG”, the binding signal was 6140 fluorescence intensity (a.u.).

As to “GCCCAGTCCAATCTATCATCAGATTCCTTTTATACAATATCGGAGTCACCTAGTGCAG”, the binding signal was 6230 fluorescence intensity (a.u.).

With “TTATTAATAAACTAGATAGTTGTTAACCCGCGTTTTGAGTCGGAGTCACCTAGTGCAG”, the binding signal is 3530 fluorescence intensity (a.u.).

“TTTGTTTAATTATGCATGATTAGATAGCATATAGTTATTACGGAGTCACCTAGTGCAG”: the binding signal was 22500 fluorescence intensity (a.u.).

Take “CAATGGAAATCAACTAATCATACTGTTCATAAACAGCTTTCGGAGTCACCTAGTGCAG”: the binding signal is 3720 fluorescence intensity (a.u.).

Take “GGGGTCAATCATGCATAACCAGAAAGTGATGCTACTGGCTCGGAGTCACCTAGTGCAG”: the binding signal was 23200 fluorescence intensity (a.u.).

As for “AGGGGTTGTAATTGGTTTAGAGGTGGAGGTAGATAAGAAACGGAGTCACCTAGTGCAG”, the binding signal was 11300 fluorescence intensity (a.u.).

As to “TGTGACTGATAGCAAGAACATATGGCTGCTTGACAAATAACGGAGTCACCTAGTGCAG”, the binding signal was 8880 fluorescence intensity (a.u.).

For the sequence “GATTGCAATTGATGATTATGTCCGTTATCAATTCCTACTCCGGAGTCACCTAGTGCAG”, the binding signal is 15000 fluorescence intensity (a.u.).

Take “CAAACTAGAATAATATAAATGATTGATTTTGAGCATATCCCGGAGTCACCTAGTGCAG”: the binding signal is 16400 fluorescence intensity (a.u.).

Consider “TTTATGTGATTGTCATTTATTTTACTGTGACTTGATTCATCGGAGTCACCTAGTGCAG”, for which the binding signal was 29000 fluorescence intensity (a.u.).

For the sequence “ATTGAAATTATGTCGGCCTGTCAGAGGCTCTTTCATCGCTCGGAGTCACCTAGTGCAG”, the binding signal was 3780 fluorescence intensity (a.u.).

In the case of “TACAATCACATTCAATTTGAAAAGAGAAGATGGCTCTTGGCGGAGTCACCTAGTGCAG”, the binding signal is 9800 fluorescence intensity (a.u.).

With “ACAAAATCACTGTAAAATCATTTCTAAAATCACTTTATATCGGAGTCACCTAGTGCAG”, the binding signal was 3250 fluorescence intensity (a.u.).

For “TAATTAATTAACAAAGAACTATATAATCGAAGACCAAATCCGGAGTCACCTAGTGCAG”, the binding signal was 8580 fluorescence intensity (a.u.).

In the case of “GTATAATCAGTTTGTAACAGAACTATCACAACTCACACGGCGGAGTCACCTAGTGCAG”, the binding signal was 12500 fluorescence intensity (a.u.).

As for “GGTCTATAATTAGCAATAACAACATGCTCCAAAGTGTAGTCGGAGTCACCTAGTGCAG”, the binding signal was 16400 fluorescence intensity (a.u.).

With “GGTGGACGAGATTGGAGCGGCAAAGAAGGGGTGAAGAGGTCGGAGTCACCTAGTGCAG”, the binding signal is 3460 fluorescence intensity (a.u.).

Take “AGTCATTTTCCCCTTAATTTGTTGGAGTATGCTATCCAAGCGGAGTCACCTAGTGCAG”: the binding signal was 10100 fluorescence intensity (a.u.).

“ATAATTGAAACGATATAAGGAAATACTCGTATATGAAGTACGGAGTCACCTAGTGCAG”: the binding signal is 19500 fluorescence intensity (a.u.).

“TTTAGACATAATTAAAATTTCGGATTAAAAGAATAAGGAACGGAGTCACCTAGTGCAG”: the binding signal was 24200 fluorescence intensity (a.u.).

In the case of “AAACGATACATGATTTAGGCCGTGATGAATCTTGGCATGCCGGAGTCACCTAGTGCAG”, the binding signal is 4590 fluorescence intensity (a.u.).

For “GTCTCTAATCTACGTTAATCAGCAGAAATCAAACTTGACACGGAGTCACCTAGTGCAG”, the binding signal is 15400 fluorescence intensity (a.u.).

As for “AACTAAATTTGGGAGATCGAGAAAGATTCGGCCAGATTTGCGGAGTCACCTAGTGCAG”, the binding signal is 4390 fluorescence intensity (a.u.).

On to “GTTAATTGTCATCGATTTCCCGATTCTTTTGTCAAATTTACGGAGTCACCTAGTGCAG”, for which the binding signal was 15700 fluorescence intensity (a.u.).

On to “ATTAACTGGTACCTCATCGATTGAACATATATATGCATTACGGAGTCACCTAGTGCAG”, for which the binding signal is 17700 fluorescence intensity (a.u.).

As to “GCTTATTGGCTTATATGATTTATAAGCCAGTGGATTTAATCGGAGTCACCTAGTGCAG”, the binding signal was 7500 fluorescence intensity (a.u.).

In the case of “CATCTGATGGAGATGTGTTCCATAACAAAGTTGTAGAGCTCGGAGTCACCTAGTGCAG”, the binding signal is 4270 fluorescence intensity (a.u.).

With “GCCTAATTACGCCATGATTTGATAATGTGGTGCTACAGTACGGAGTCACCTAGTGCAG”, the binding signal was 41800 fluorescence intensity (a.u.).

With “TCTGACCTGAAAGTCTCAATCAGACAGCTTTCGAAAAGGACGGAGTCACCTAGTGCAG”, the binding signal was 4260 fluorescence intensity (a.u.).

Consider “AATAACGTTATAATTATAGTGGCACGAGTTCAAATAGGTGCGGAGTCACCTAGTGCAG”, for which the binding signal was 5240 fluorescence intensity (a.u.).

As to “AATAACTTTTAAATATAATAAAACTGAAATGTGAATGAAGCGGAGTCACCTAGTGCAG”, the binding signal is 4750 fluorescence intensity (a.u.).

On to “TCAAAATTTTATAAAATAGATGTAATATTTATATGATGAACGGAGTCACCTAGTGCAG”, for which the binding signal is 5790 fluorescence intensity (a.u.).

Regarding “ATCAAATAAAGCCGTTAATTTCAGAAAATTTTCGTGGGCTCGGAGTCACCTAGTGCAG”, the binding signal was 4190 fluorescence intensity (a.u.).

Regarding “TTGGAATAAGGCAGTGATTGGTGGCGCACACTGCACACACCGGAGTCACCTAGTGCAG”, the binding signal is 13200 fluorescence intensity (a.u.).

For the sequence “AGTACAATCAATCTGACGAAATTGCTCATTTTGGTCGCTACGGAGTCACCTAGTGCAG”, the binding signal was 17200 fluorescence intensity (a.u.).

Consider “ACTTTGATCAAAACTCCTTATAATTTGAAAGGTGGGAGTACGGAGTCACCTAGTGCAG”, for which the binding signal was 6720 fluorescence intensity (a.u.).

With “ATTTTGATTAATCTCGTATTGGGTTCTTATATGGAAACTTCGGAGTCACCTAGTGCAG”, the binding signal is 33500 fluorescence intensity (a.u.).

“TGTAAATTGGAAATTGTAAAACTTACAGATGATAAACAAGCGGAGTCACCTAGTGCAG”: the binding signal was 23300 fluorescence intensity (a.u.).

On to “CTTTCTTCTTTTGTCCCTTTTGATTTGATCACCGTATTCACGGAGTCACCTAGTGCAG”, for which the binding signal is 3170 fluorescence intensity (a.u.).

In the case of “GCTGACGATTTGATTAACCCAACCCGCTCCGACACGTGCCCGGAGTCACCTAGTGCAG”, the binding signal is 29600 fluorescence intensity (a.u.).

“GCTAAATTGTAAAACTTGTGCTCGATGATGGTAAACCGGACGGAGTCACCTAGTGCAG”: the binding signal is 10800 fluorescence intensity (a.u.).

In the case of “CAAGATCAATTGACAATTCAGATATAAATTAAGATAGTACCGGAGTCACCTAGTGCAG”, the binding signal was 7340 fluorescence intensity (a.u.).
